# Reference: PubChem BioAssay AID2451 (National Center for Advancing Translational Sciences (NCATS), 2010)
# Where “and” joins values, the source holds several entries; their conditions need not be identical. Identical values can stand only once. Out of some 290,000 compounds screened, about 2,100 (0.72%) were called active. This list was built around the results that the source calls inconclusive (neither active nor inactive); the mix of calls is not that of the screen. Calls come from the whole dose curve; as a rule, active = well fitted inhibition curve with a large enough effect; inconclusive = small, poorly fitted or top-dose-only effect, or effect the other way; inactive = flat fitted curve, though single readings scatter. Where the call is inconclusive, the potency comes from a doubtful curve fit.
# Molecular target: Fructose-bisphosphate aldolase (Giardia intestinalis (strain ATCC 50803 / WB clone C6)) (UniProt A8B2U2)
# Test: qHTS Assay for Inhibitors of Fructose-1,6-bisphosphate Aldolase from Giardia Lamblia; note: nearly all actives have a fitted effect of over 55% in size
# Settings: purified Giardia FBPA; activity, negative = inhibition: at 59.6 µM (top of the series) unless noted
# Summary of the method: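 Giardia FBPA (40 nM reagent) was preincubated 10 min at RT with compound (up to 57.5 uM final), then substrate plus GAPDH/TPI/NAD/arsenate coupling system with diaphorase/resazurin was added; resorufin fluorescence (525/598 nm) was read after 20 min.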
# % is set by controls: 0 for no effect and ±100 for the full control effect; potency is the fitted concentration of half-maximal effect; tags give direction and shape of the fitted curve.
# UniProt A8B2U2, sequence (A8B2U2 whole entry, looked up): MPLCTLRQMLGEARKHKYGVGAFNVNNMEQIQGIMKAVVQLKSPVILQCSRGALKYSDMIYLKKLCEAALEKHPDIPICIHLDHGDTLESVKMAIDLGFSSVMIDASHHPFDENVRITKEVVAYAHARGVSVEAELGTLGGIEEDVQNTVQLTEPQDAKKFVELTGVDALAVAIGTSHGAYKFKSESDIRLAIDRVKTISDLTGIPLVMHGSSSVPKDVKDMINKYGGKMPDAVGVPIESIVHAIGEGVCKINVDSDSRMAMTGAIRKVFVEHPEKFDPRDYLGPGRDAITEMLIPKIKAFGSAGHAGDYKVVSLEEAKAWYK
Compound,"activity, negative = inhibition",Potency
COc1ccc(CCNC(=S)NC(=O)c2ccccc2)cc1OC,inactive: -1.94%,–
CCOC(=O)c1cnc(-c2ccccc2O)nc1Cl,–,active: 19.9 µM
O=C(CCN1CCN(C/C=C/c2ccccc2)CC1)Nc1ccccc1Cl,–,"inconclusive: 15.8 µM [inhibitor, partial curve]"
Cc1nnc(NC(=O)CN2CCN(Cc3ccccc3)CC2)s1,–,active: 6.31 µM
CC(=O)N(C1=C(N)C(=O)c2ccccc2C1=O)C(C)C,–,"inconclusive: 3.15 µM [inhibitor, full curve]"
CC1(C)CC(=O)C(C=Nc2ccc3[nH]ncc3c2)=C(O)C1,–,"inconclusive: 10 µM [inhibitor, partial curve]"
C[C@]12CC[C@@H]3c4ccc(O)c(O)c4CC[C@H]3[C@@H]1CC[C@@H]2O,–,active: 12.6 µM
CNC(C)C#Cc1c(-c2cc(OC)c(OC)c(OC)c2)noc1C (configuration not stated),inactive: -10%,–
O=C(NCc1ccc(F)cc1)C(C(=O)NCc1ccc(F)cc1)c1ncc(C(F)(F)F)cc1Cl,inactive: 4.67%,–
COc1cc(O)c(C(CC(=O)N2CCCCC2)c2ccc3c(c2)OCO3)c(OC)c1 (configuration not stated),–,"inconclusive: 17.7 µM [inhibitor, partial curve]"
N#C/C(=C(/O)CN1CCCC1)c1nc(-c2ccccc2)cs1,–,"inconclusive: 15.8 µM [inhibitor, partial curve]"
CN(Cc1ccccc1)c1nc(CN2CCOCC2)nc2scc(-c3ccccc3)c12,inactive: 13.5%,–
NC(=O)c1sc2nc3c(c(-c4ccco4)c2c1N)CCC3,–,"inconclusive: 2.81 µM [inhibitor, full curve, poor fit]"
COc1ccc(N2CCN(C(C)C(=O)N3CC(C)OC(C)C3)CC2)cc1 (configuration not stated),–,"inconclusive: 19.9 µM [inhibitor, partial curve]"
NC(=O)CC(NC(=O)Cc1cccc2ccccc12)c1ccc(NCC2CC2)c([N+](=O)[O-])c1 (configuration not stated),inactive: 0.541%,–
O=C1N/C(=N/Nc2ccccc2)S/C1=C\c1ccccc1,–,"inconclusive: 17.7 µM [inhibitor, single point]"
CSc1nnc(C2CCCN(CC(=O)Nc3ccccc3N3CCOCC3)C2)n1C(C)C (configuration not stated),inactive: 13.2%,–
COc1ccc(C2=NS(=O)(=O)N(C)C(C(=O)NCc3cccs3)=C2)cc1OC,inconclusive: 49.8% [activator],–
Cc1cccc(/C=N/NC(=O)c2ccc(NC(=O)c3ccc(Cl)cc3)cc2)n1,–,"inconclusive: 28.2 µM [inhibitor, single point]"
CCOC(=O)COn1c(=O)c(-c2ccc(F)cc2)[n+]([O-])c2ccccc21,inconclusive: 30.4% [activator],–
CCc1ccc(Nc2n[n+](-c3ccccc3)c(-c3ccc(N(CC)CC)cc3)s2)cc1,–,active: 25.1 µM
COc1cc(CNCc2ccncc2)cc(OC)c1OC,–,"inconclusive: 20 µM [inhibitor, partial curve]"
CC(=O)OCC1=C(C(=O)O)N2C(=O)[C@@H](NC(=O)Cc3cccs3)[C@H]2SC1,–,"inconclusive: 28.1 µM [inhibitor, partial curve] and inconclusive: 15.8 µM [inhibitor, single point]"
COc1ccccc1-n1c(=S)[nH]c2c(sc(=S)n2-c2ccc(C)cc2C)c1=O,–,"inconclusive: 15.8 µM [inhibitor, single point]"

Compound,"activity, negative = inhibition",Potency
O=C(c1ccco1)N1CCN(Cc2ccc(F)cc2)CC1,–,"inconclusive: 25.1 µM [inhibitor, partial curve]"
CN(C)/C=C1/N=C(c2ccccc2)OC1=O,inactive: 4.42%,–
C/C=C/c1ccc(OCC(O)CNCCc2ccc(OC)cc2)c(OC)c1 (configuration not stated),inactive: -20.9%,–
CC(=O)Nc1cccc2c1C(=O)N(c1ccc(OC(C)=O)cc1)C2=O,inactive: -4.17%,–
COc1ccc(C(=O)CSc2ncn[nH]2)cc1OC,–,"inconclusive: 17.7 µM [inhibitor, single point]"
O=C(NC1(O)C(=O)c2ccccc2C1=O)c1c(Cl)cccc1Cl,–,"inconclusive: 19.9 µM [inhibitor, partial curve]"
COc1ccc(NC(=O)CCCNC(=O)c2ccc(Cl)cc2)cc1OC,inactive: 6.96%,–
CC1CN(CCCCOc2ccc3ccccc3c2)CC(C)O1 (configuration not stated),inactive: -2.81%,–
CCn1c(CC(=O)Nc2ccccc2F)nnc1SCC(=O)Nc1nncs1,–,"inconclusive: 28.2 µM [inhibitor, partial curve]"
S=c1[nH]nc(-c2ccncc2)n1Cc1ccccc1,inactive: -5.9%,–
CCCCCCc1ccc(OCC(=O)O)cc1OCC(=O)O,–,"inconclusive: 15.8 µM [activator, single point]"
CC(=O)c1cccc(NC(=S)NC(=O)c2cncc(Br)c2)c1,–,active: 12.6 µM
COc1cc(OC)cc(C(=O)NC(=S)NNC(=O)[C@H]2C[C@@H]2c2ccccc2)c1,–,"inconclusive: 31.5 µM [activator, single point]"
Cc1cccc(Cn2c(C(=O)OC(C)C)cc3c2ccn3C)c1,–,"inconclusive: 17.7 µM [inhibitor, partial curve]"
BrC(=C\c1ccccc1)/C=N/Nc1nc2ccccc2[nH]1,–,"inconclusive: 35.4 µM [activator, single point]"
CSc1ccc(-c2sc(Nc3cccc4ccccc34)n[n+]2-c2ccccc2)cc1,–,active: 25.1 µM
COc1nc(SC)nc(Cl)c1Cc1ccc(OC(C)C)cc1,inactive: 1.2%,–
O=C(Nc1nc(-c2ccccn2)cs1)C1COc2ccccc2O1 (configuration not stated),–,"inconclusive: 17.7 µM [activator, single point]"
COC(=O)Cn1c2ccc(C)cc2c2nc(C)sc21,–,"inconclusive: 15.8 µM [inhibitor, single point]"
CCOC(=O)c1cn(-c2ccccc2)nc1-c1ccncc1,inactive: -1.15%,–
O=C(O)c1ccc2nc3c(nc2c1)-c1ccccc1C3=O,–,"inconclusive: 17.7 µM [inhibitor, single point]"
O=C(NCc1ccccn1)c1n[nH]c(=O)c2ccccc12,–,"inconclusive: 44.6 µM [inhibitor, single point]"
COCc1nnc(NC(=O)c2ccc(S(=O)(=O)N(C)C3CCCCC3)cc2)o1,–,"inconclusive: 44.6 µM [inhibitor, single point]"
O=C(CSc1n[nH]c(-c2cccnc2)n1)Nc1ccc(Br)cc1,–,active: 14.1 µM

Compound,"activity, negative = inhibition",Potency
CCc1nnc(NC(=O)c2ccc(S(=O)(=O)N3CCCC(C)C3)cc2)o1 (configuration not stated),–,"inconclusive: 31.6 µM [inhibitor, single point]"
O=C(CCl)NN1C(=O)NC(c2ccccc2)(c2ccccc2)C1=O,inactive: 11.6%,–
O=C1CCCC2=C1C(c1ccc(O)c(O)c1)Nc1ccc3ncccc3c12 (configuration not stated),–,"inconclusive: 17.7 µM [inhibitor, single point]"
CCC(CC)NCc1c[nH]c2ccccc12,–,"inconclusive: 22.3 µM [inhibitor, partial curve]"
CCCCC[C@H]1CN(C2CCCCC2)C(=O)[C@@H]1CC(=O)NCc1ccccc1,inactive: 3.87%,–
CN(C)S(=O)(=O)c1cccc(NC(=O)CC23CC4CC(CC(C4)C2)C3)c1,inactive: 12.4%,–
COc1cc2c(cc1OC)C1=C(C#N)COCN1CC2,–,"inconclusive: 25.1 µM [inhibitor, single point]"
O=C(O)CNC(=S)N(Cc1ccccc1Cl)C1CCCCC1,–,"inconclusive: 17.7 µM [activator, partial curve]"
Cc1ccc(S(=O)(=O)NC(C)C(c2cccs2)N2CCN(C)CC2)cc1 (configuration not stated),inactive: -1.16%,–
C[n+]1ccc(/C=C/c2c[nH]c3ccc(F)cc23)cc1,–,"inconclusive: 12.6 µM [inhibitor, partial curve]"
COc1cc(C2Nc3cccc4cccc(c34)N2)ccc1OC(C)=O,–,"inconclusive: 3.15 µM [inhibitor, full curve]"
COc1ccc(-c2nc3c(c4c2CC(C)OC4)CN(CCC(C)C)CC3)cc1 (configuration not stated),inactive: -7.7% [at 12.9 µM],–
COc1cccc(-c2nc(CS(=O)(=O)CC(=O)N3CCc4ccccc4C3)c(C)o2)c1,–,"inconclusive: 12.6 µM [inhibitor, partial curve]"
O=C(NN=C1CCCCCCCCCCC1)c1ccncc1,–,"inconclusive: 19.9 µM [inhibitor, single point]"
CC/C=C/CC(=O)N[C@@H](c1ccccc1)[C@@H](O)C(=O)O[C@H]1C[C@@]2(O)[C@@H](OC(=O)c3ccccc3)C3[C@](C)(C(=O)[C@H](OC(C)=O)C(=C1C)C2(C)C)[C@@H](O)C[C@H]1OC[C@@]31OC(C)=O (some centres not stated),–,"inconclusive: 44.7 µM [inhibitor, single point]"
Cc1cc2ccccc2n1CCNC(=O)c1ccc(Br)o1,–,"inconclusive: 17.7 µM [inhibitor, partial curve]"
CN(C)S(=O)(=O)c1cc(NC(=O)CN2CCN(c3ccc(O)cc3)CC2)ccc1Cl,–,"inconclusive: 15.8 µM [inhibitor, single point]"
Fc1ccc(NC(=S)Nc2cccc3ccccc23)cc1F,–,"inconclusive: 28.2 µM [inhibitor, single point]"
Cc1ccc(Nc2nc(=O)c3cccnc3s2)cc1,inactive: -24.8%,–
C=CCn1c(O)c(C(CC)=Nc2cc(OC)ccc2OC)c(=O)[nH]c1=O,–,"inconclusive: 15.8 µM [inhibitor, single point]"
CSC1=NS(=O)(=O)c2c(C)nn(C)c2S1,–,active: 15.8 µM
CSc1ccccc1NC(=O)C1=CC(c2cccs2)=NS(=O)(=O)N1C,inactive: -9.84%,–
COc1ccc(C2NC(=O)C(C#N)=C(S)N2c2cccc(C)c2)cc1OC (configuration not stated),–,"inconclusive: 14.1 µM [inhibitor, partial curve]"
CCOc1ccc(NC(=O)Nc2cccn(Cc3ccccc3)c2=O)cc1,–,"inconclusive: 22.3 µM [inhibitor, partial curve]"
